{"source": "PubChem BioAssay AID588591", "about": "(National Center for Advancing Translational Sciences (NCATS), 2011)", "note": "About 4,700 (1.2%) of roughly 390,000 compounds were called active. The inconclusive results got no clear call from the source; some entries with a clear call stand among them for comparison. Calls come from the whole dose curve; as a rule, active = well fitted inhibition curve with a large enough effect; inconclusive = small, poorly fitted or top-dose-only effect, or another doubt; inactive = no such curve, though single readings can be large or run the other way. Potencies beside an inconclusive call are fits to weak or partial responses and may not hold up. % is set by controls: 0 for no effect and ±100 for the full control effect; potency is the fitted concentration of half-maximal effect; tags give direction and shape of the fitted curve."}
{"target": "DNA polymerase eta (Homo sapiens) (UniProt Q9Y253)", "sequence (Q9Y253 whole entry, looked up)": "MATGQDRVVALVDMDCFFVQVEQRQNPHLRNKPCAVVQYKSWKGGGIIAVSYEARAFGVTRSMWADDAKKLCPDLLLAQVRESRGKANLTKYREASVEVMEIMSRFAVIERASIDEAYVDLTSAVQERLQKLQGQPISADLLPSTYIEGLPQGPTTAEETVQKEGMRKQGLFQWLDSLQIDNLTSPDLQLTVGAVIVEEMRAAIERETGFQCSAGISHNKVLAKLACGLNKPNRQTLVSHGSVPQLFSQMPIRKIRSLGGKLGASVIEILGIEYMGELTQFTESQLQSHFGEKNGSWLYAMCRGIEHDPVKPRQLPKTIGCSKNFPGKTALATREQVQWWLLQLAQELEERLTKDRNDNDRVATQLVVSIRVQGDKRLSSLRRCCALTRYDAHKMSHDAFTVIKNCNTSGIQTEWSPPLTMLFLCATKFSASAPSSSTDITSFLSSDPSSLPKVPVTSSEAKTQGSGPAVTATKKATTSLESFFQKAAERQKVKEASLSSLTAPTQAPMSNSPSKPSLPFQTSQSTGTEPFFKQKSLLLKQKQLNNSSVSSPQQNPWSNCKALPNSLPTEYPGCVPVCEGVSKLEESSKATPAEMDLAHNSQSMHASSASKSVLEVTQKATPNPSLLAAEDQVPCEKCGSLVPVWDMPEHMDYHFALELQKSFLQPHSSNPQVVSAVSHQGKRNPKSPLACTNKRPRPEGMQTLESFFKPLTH", "assay": "qHTS for Inhibitors of Polymerase Eta", "settings": "recombinant Pol eta, fluorescent DNA replication assay; series mostly up to 114 µM; activity change, negative = inhibition: at the top concentration", "how_it_was_run": "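Pol eta (10 nM) was preincubated with compounds for 15 min at room temperature, after which fluorescent replication substrate (50 nM final) was added to start the reaction. Fluorescence was read kinetically at 0 and 10 min.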"}
{"smiles": "CCCNC(=O)CSc1nc(-c2ccc(OC)cc2)cc(C(F)(F)F)n1", "activity change, negative = inhibition": "inactive: -16.7%"}
{"smiles": "C#CCOCCOCCOCCNc1nc(N2CCN(C(=O)[C@H]([C@@H](C)CC)n3cc(CCC(=O)O)nn3)CC2)nc(N2CCN(C(=O)[C@H](C)n3cc(CCCN=C(N)N)nn3)CC2)n1", "activity change, negative = inhibition": "inactive: -8.12%"}
{"smiles": "Cc1cc(NC(=O)CC2(CC(=O)O)CCCC2)n(C)n1", "activity change, negative = inhibition": "inactive: -0.745%"}
{"smiles": "COc1ccc(O)c(-c2cc(-c3ccccc3[N+](=O)[O-])[nH]n2)c1", "Potency": "inconclusive: 79.4 µM [inhibitor, single point]"}
{"smiles": "CCOC(=O)c1c(Oc2ccc(C(C)=O)cc2)nnc(-c2ccccc2)c1-c1ccccc1", "Potency": "inconclusive: 100 µM [inhibitor, partial curve, poor fit]"}
{"smiles": "O=C(CN1CCCCC1)Nc1nnc(-c2ccc([N+](=O)[O-])cc2)s1", "Potency": "active: 17.8 µM"}
{"smiles": "COc1cc(/C=N/N2CCCCC2)cc([N+](=O)[O-])c1O", "Potency": "inconclusive: 56.2 µM [inhibitor, partial curve, poor fit]"}
{"smiles": "Cc1cc(C)c(CN2CCN(C(=O)Cn3cnc4c(OCc5ccccc5)ncnc43)CC2)c(C)c1", "activity change, negative = inhibition": "inactive: -3.36%"}
{"smiles": "O=C(CCc1ccco1)CCc1ccco1", "Potency": "inconclusive: 12.6 µM [inhibitor, partial curve, poor fit]"}
{"smiles": "O=C(CSc1nc2ccccc2c2nc3ccccc3n12)NCc1ccco1", "Potency": "inconclusive: 3.98 µM [inhibitor, full curve, poor fit]"}
{"smiles": "COc1cccc(C(=O)Nc2cccc(C(=O)OCc3cc(=O)n4c(C)csc4n3)c2)c1", "activity change, negative = inhibition": "inactive: -14.4%"}
{"smiles": "Cc1cccc(C2=NN(c3ccccc3)[C@H](CO)[C@H]2c2ccccc2)c1", "Potency": "inconclusive: 79.4 µM [inhibitor, partial curve, poor fit]"}
{"smiles": "COc1cc(OC)cc(C(=O)N[C@H](C(=O)OCc2cc(=O)oc3cc(C)ccc23)C(C)C)c1", "Potency": "inconclusive: 3.55 µM [inhibitor, partial curve, poor fit]"}
{"smiles": "COc1ccc(-c2[nH]nc3c2C(c2ccsc2)C(C#N)=C(N)O3)cc1", "note": "(stereo not given)", "activity change, negative = inhibition": "inactive: -3.6%"}
{"smiles": "Cc1nn(-c2ccccc2)c(C)c1C(=O)OCC(=O)NC(=O)NC1CCCCC1", "Potency": "inconclusive: 79.4 µM [inhibitor, partial curve, poor fit]"}
{"smiles": "O=C1C2C3C=CC(C4CC34)C2C(=O)N1/N=C/c1ccc(-c2ccccc2[N+](=O)[O-])o1", "note": "(stereo not given)", "Potency": "inconclusive: 25.1 µM [inhibitor, partial curve, poor fit]"}
{"smiles": "O=C(NCc1ccco1)c1cnccn1", "Potency": "inconclusive: 25.1 µM [inhibitor, single point]"}
{"smiles": "Cc1ccc(OCCCSc2nc(-c3ccc(C(C)(C)C)cc3)nc3cc(=O)[nH]n23)cc1C", "Potency": "active: 44.7 µM"}
{"smiles": "Cc1ccc(NC(=O)CN2C(=O)CC(C)Sc3ccccc32)c(C)c1", "note": "(stereo not given)", "activity change, negative = inhibition": "inactive: -18.6%"}
{"smiles": "CC1Cc2ccccc2N1C1=CC(=O)CCC1", "note": "(stereo not given)", "activity change, negative = inhibition": "inactive: -4.53%"}
{"smiles": "CCCCn1c(SCc2nc(N)nc(N3CCCCC3)n2)nc2c1c(=O)n(C)c(=O)n2C", "Potency": "inconclusive: 31.6 µM [inhibitor, single point]"}
{"smiles": "CC12CCC(=O)N1C(C(=O)Nc1nc3c(F)cc(F)cc3s1)CS2", "note": "(stereo not given)", "Potency": "inconclusive: 22.4 µM [inhibitor, full curve]"}
{"smiles": "CC(C)N(Cc1ccccc1)C(=O)COC(=O)c1cnccn1", "Potency": "inconclusive: 100 µM [inhibitor, partial curve, poor fit]"}
{"smiles": "CCOC(=O)CNC(=O)c1ccc(Br)s1", "Potency": "inconclusive: 89.1 µM [inhibitor, single point]"}
{"smiles": "Cc1ccc(C)n1/N=C1/NC(=O)CS1", "Potency": "active: 2.24 µM"}
{"smiles": "O=C1C(c2ccnc3ccccc23)=C(O)c2ccccc21", "Potency": "inconclusive: 12.6 µM [inhibitor, partial curve]"}
{"smiles": "COc1cccc(/C=N/NC(=O)c2cc3cc([N+](=O)[O-])ccc3s2)c1O", "Potency": "active: 3.55 µM"}
{"smiles": "CC(OC(=O)C1CCN(c2ccc(C(F)(F)F)cn2)CC1)C(=O)Nc1ccc(S(N)(=O)=O)cc1", "note": "(stereo not given)", "Potency": "inconclusive: 12.6 µM [inhibitor, full curve, poor fit]"}
{"smiles": "O=C(O)c1ccc(/C=C2\\COc3ccccc3C2=O)cc1", "Potency": "inconclusive: 31.6 µM [inhibitor, full curve]"}
{"smiles": "COc1ccccc1CNC(=O)c1cnn2c(C(F)F)cc(C)nc12", "Potency": "inconclusive: 2.82 µM [inhibitor, partial curve, poor fit]"}
{"smiles": "COc1ccc(NC(=O)Cn2cc(S(=O)(=O)Cc3ccc(F)cc3)c3ccccc32)cc1OC", "Potency": "active: 50.1 µM"}
{"smiles": "Cc1ccc(C=C2C(=O)c3ccccc3C2=O)s1", "Potency": "inconclusive: 100 µM [inhibitor, single point]"}
{"smiles": "CC(=O)c1sc2nc(SCC(=O)N3CCCCC3)[nH]c(=O)c2c1C", "Potency": "active: 10 µM"}
{"smiles": "CC1(C)CC2(CC(c3ccccc3F)c3ccc(O)c(O)c3O2)NC(=S)N1", "note": "(stereo not given)", "activity change, negative = inhibition": "inactive: -9.13%"}
{"smiles": "Cn1cc(S(=O)(=O)N2CCCCC2)cc1C(=O)Nc1cccc(C#N)c1", "activity change, negative = inhibition": "inactive: -8.94%"}
{"smiles": "Cc1ccc(S(=O)(=O)N2C[C@H]3N(C(=O)OC(C)C)N(C(=O)OC(C)C)C[C@H](OC(=O)NC4CCCC4)[C@@]3(O)C2)cc1", "Potency": "inconclusive: 28.2 µM [inhibitor, partial curve, poor fit]"}
{"smiles": "CCCC[C@@H]1C=C(C(=O)O)[C@H](c2ccc(Cl)c(Cl)c2)N1S(=O)(=O)c1ccc(C)cc1", "Potency": "inconclusive: 89.1 µM [inhibitor, partial curve, poor fit]"}
{"smiles": "Cc1ccc(OCCC(=O)O)cc1", "Potency": "active: 56.2 µM"}
{"smiles": "CCCC1=Nc2cc(C(=O)N3CCC(C)CC3)ccc2Sc2ccc(C)cc21", "Potency": "inconclusive: 50.1 µM [inhibitor, partial curve, poor fit]"}
{"smiles": "CC1=C(C(=O)OC2CCCCCC2)C(c2cccc(Cl)c2)CC(=O)N1", "note": "(stereo not given)", "Potency": "inconclusive: 79.4 µM [inhibitor, single point]"}
{"smiles": "O=C(Nc1cccc(Cl)c1)c1ccc(F)c(S(=O)(=O)N2CCN(c3ccccn3)CC2)c1", "Potency": "inconclusive: 44.7 µM [inhibitor, partial curve, poor fit]"}
{"smiles": "O=c1cc(O)c2sc(Nc3ccc(F)c(Cl)c3)nc2[nH]1", "activity change, negative = inhibition": "inactive: -12.4%"}
{"smiles": "O=C1c2cccc3cccc(c23)C(=O)N1/N=C/c1ccc(O)cc1O", "Potency": "inconclusive: 11.2 µM [inhibitor, partial curve, poor fit]"}
{"smiles": "COc1cc(C2C(C(=O)c3ccc(C)o3)=C(O)C(=O)N2c2cc(C)on2)cc(Br)c1O", "note": "(stereo not given)", "Potency": "inconclusive: 31.6 µM [inhibitor, partial curve, poor fit]"}
{"smiles": "Cc1oc2c(C)c3oc(=O)c(CCC(=O)O)c(C)c3cc2c1-c1ccccc1", "Potency": "inconclusive: 39.8 µM [inhibitor, single point]"}
{"smiles": "N#C/C(C(=O)NCc1ccco1)=C1/SC=C(c2ccccc2)N1c1ccccc1", "Potency": "inconclusive: 39.8 µM [inhibitor, partial curve, poor fit]"}
{"smiles": "O=C(COc1ccc(/C=N/NC(=O)c2ccccc2O)cc1)Nc1ccc([N+](=O)[O-])cc1", "Potency": "inconclusive: 4.47 µM [inhibitor, full curve, poor fit]"}
{"smiles": "COc1ccc(-c2c(C)c3ccc(O)cc3oc2=O)cc1OC", "activity change, negative = inhibition": "inactive: -18.5%"}
{"smiles": "COc1cc(C(=O)Nc2ccc3c(c2)C(=O)c2ccccc2C3=O)cc(OC)c1OC", "Potency": "inconclusive: 28.2 µM [inhibitor, partial curve]"}
{"smiles": "O=C(COC(=O)Cc1ccc(S(=O)(=O)N2CCOCC2)s1)Nc1ccc(OC(F)F)cc1", "Potency": "inconclusive: 39.8 µM [inhibitor, partial curve, poor fit]"}
{"smiles": "Nc1ccc2nc3c(=O)[nH]c(=S)[nH]c3nc2c1", "Potency": "active: 1.12 µM"}
{"smiles": "O=C(N/N=C/c1ccco1)c1cc(-c2cccc3ccccc23)n[nH]1", "activity change, negative = inhibition": "inactive: -7.61%"}
{"smiles": "CCn1cc(C(=O)NCc2ccc3c(c2)OCO3)c(=O)c2cc(F)c(N3CCN(C(=O)c4ccco4)CC3)cc21", "Potency": "inconclusive: 7.94 µM [inhibitor, partial curve, poor fit]"}
{"smiles": "COc1ccc(OCC(=O)Nc2ccc(C(=O)Nc3ccccc3C(=O)O)cc2)cc1", "Potency": "inconclusive: 79.4 µM [inhibitor, partial curve, poor fit]"}
{"smiles": "O=C1OC(c2ccco2)=N/C1=C\\c1ccc(-c2cccc(C(F)(F)F)c2)o1", "Potency": "active: 79.4 µM"}
{"smiles": "COc1ccc(NC(=O)c2c(C)oc3ccc(O)c(CN4CCCCCC4)c23)cc1Cl", "activity change, negative = inhibition": "inactive: -18.4%"}
{"smiles": "O=c1oc2ccccc2c(Nc2ccc3ccccc3c2)c1[N+](=O)[O-]", "Potency": "inconclusive: 31.6 µM [inhibitor, partial curve]"}
{"smiles": "Cc1ccc2c(Cl)c(C(=O)NCC(c3ccco3)N3CCCC3)sc2c1", "note": "(stereo not given)", "Potency": "inconclusive: 79.4 µM [inhibitor, partial curve, poor fit]"}
{"smiles": "CCOc1ccc(N2C(=O)C(=O)/C(=C(/O)c3ccccc3)C2c2ccccc2[N+](=O)[O-])cc1", "note": "(stereo not given)", "Potency": "inconclusive: 44.7 µM [inhibitor, partial curve, poor fit]"}
{"smiles": "CCOc1ccccc1N1CC(c2nc3ccccc3n2Cc2c(C)cc(C)cc2C)CC1=O", "note": "(stereo not given)", "Potency": "inconclusive: 56.2 µM [inhibitor, partial curve, poor fit]"}
{"smiles": "CCc1ccc(N=C2NC(=O)/C(=C/c3cc(OC)c(O)c(OC)c3)S2)cc1", "activity change, negative = inhibition": "inactive: -25.3%"}
{"smiles": "COc1ccc(N/N=C(/C#N)S(=O)(=O)c2nsc(C)c2C#N)cc1", "activity change, negative = inhibition": "inactive: 0.0421%"}
{"smiles": "C=C1C(=O)O[C@H]2[C@H]1[C@H](OC(=O)/C(C)=C\\C)C[C@]1(CO1)[C@@H]1[C@H](OC(C)=O)C=C(C)[C@]21O", "Potency": "inconclusive: 28.2 µM [inhibitor, partial curve]"}
{"smiles": "Cc1ccc(Cn2c(SCC(=O)C(C)(C)C)nc3ccsc3c2=O)cc1", "activity change, negative = inhibition": "inactive: 11.4%"}
{"smiles": "Cc1sc2ncn(CC(=O)N3CCN(c4ccc(Cl)cc4)CC3)c(=O)c2c1S(=O)(=O)N1CCN(c2ncccn2)CC1", "activity change, negative = inhibition": "inactive: -14.3%"}
